Assay results from PubChem BioAssay AID1159614 (National Center for Advancing Translational Sciences (NCATS), 2016).
The whole screen tested about 45,000 compounds, of which about 65 (0.1%) were called active. The call rests on the fitted dose curve; in most records, active means well fitted activation curve with a large enough effect; inconclusive means small, poorly fitted or top-dose-only effect; inactive means no such curve, though single readings can be large or run the other way. Some of the results follow.

biological target: Galactocerebrosidase (Homo sapiens) (UniProt P54803); test: A Novel Cell-Based Assay to Identify Small Molecules for B -Galactocerebrosidase; conditions: 145M-Twi-hGALC-G270D cells (Twitcher mouse brain line with human GALC G270D), HMU-beta-Gal fluorescence, 48 h; series mostly up to 57.5 µM; activation: at the top concentration; further: 0% is about no effect; nearly all actives have a fitted effect of over 65% in size
Chain of UniProt P54803 (P54803 whole entry, looked up): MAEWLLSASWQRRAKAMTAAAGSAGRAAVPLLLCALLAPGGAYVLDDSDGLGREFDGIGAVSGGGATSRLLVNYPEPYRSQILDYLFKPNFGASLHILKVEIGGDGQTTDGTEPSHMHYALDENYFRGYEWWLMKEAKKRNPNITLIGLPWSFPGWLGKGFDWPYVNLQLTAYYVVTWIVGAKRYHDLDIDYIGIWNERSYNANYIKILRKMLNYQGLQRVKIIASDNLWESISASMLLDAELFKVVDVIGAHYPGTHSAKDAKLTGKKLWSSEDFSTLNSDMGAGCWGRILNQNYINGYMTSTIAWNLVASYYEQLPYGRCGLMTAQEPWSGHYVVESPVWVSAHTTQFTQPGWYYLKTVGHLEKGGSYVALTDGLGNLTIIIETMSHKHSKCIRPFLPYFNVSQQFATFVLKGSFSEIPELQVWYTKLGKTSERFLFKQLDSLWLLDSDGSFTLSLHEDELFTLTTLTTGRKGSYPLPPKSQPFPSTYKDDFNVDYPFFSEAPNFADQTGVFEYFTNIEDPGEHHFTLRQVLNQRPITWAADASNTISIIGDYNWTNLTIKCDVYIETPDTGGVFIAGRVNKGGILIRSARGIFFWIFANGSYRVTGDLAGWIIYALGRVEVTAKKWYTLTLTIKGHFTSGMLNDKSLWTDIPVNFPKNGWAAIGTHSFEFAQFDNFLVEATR
In short: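 Live 145M-Twi cells (Twitcher mouse brain-derived, GALC-null) stably expressing human GALC-G270D, with a wild-type GALC line, were compound-treated. Residual GALC activity was then read as fluorescence from 0.1 mM final HMU-β-gal at pH 5.2; higher signal means activation.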

activation, inactive:
COc1ccccc1N1CCN(S(=O)(=O)c2ccc3c(c2)oc(=O)n3C)CC1 -15.4%, Cc1nnc(N2CCC(C(=O)NC(C)C)CC2)c2nn(-c3ccc(Cl)cc3)c(C)c12 -5.31%, Cc1ccccc1Cn1c(CCCNC(=O)C2CCCCC2)nc2ccccc21 1.3%, Cc1cccc(OCc2nnc(SCC(=O)Nc3ccc(C)cc3C)o2)c1 -3.92%, Cc1ccccc1Cn1c(SCc2ccc(C(=O)NCc3cccs3)cc2)nc2ccncc21 -16.1%, COc1ccc(S(=O)(=O)N(Cc2nc(-c3cccc(C)c3)no2)C2CCCCC2)cc1 -19.3%, Cc1c2cnn(CC(=O)NCc3ccccc3)c(=O)c2c(C)n1Cc1cccc(Cl)c1 -20.5%, CC(=O)c1cccc(NC(=O)Cn2c(SCC(=O)Nc3ccc(F)cc3)nc3ccccc32)c1 -24.8%, CCOc1ccc(-n2c(C)nc3c(cnn3-c3ccc(C)cc3)c2=O)cc1 -18.6%, CCC1CCCCN1S(=O)(=O)c1ccc(NC(=O)c2cc(=O)c3ccccc3o2)cc1 (stereo unspecified) -13.2%, CCN(CCCNC(=O)c1cc2c(=O)[nH]c3ccccc3c2s1)c1ccccc1 -20.4%, CCCCOc1ccc(C2c3c(-c4ccccc4O)n[nH]c3C(=O)N2Cc2ccncc2)cc1OC (stereo unspecified) -24.4%, O=C(Nc1nc(-c2ccc(Br)cc2)ns1)c1ccc(F)cc1 -36.2%, O=S(=O)(c1ccc(-n2cnnn2)cc1)N1CCN(c2ccccc2F)CC1 -9.81%, COc1ccc(CCN2C(=O)N(c3ccc(F)cc3)C(=O)C2CC(=O)Nc2ccccc2)cc1 (stereo unspecified) -11.5%, N#C/C(=C\c1ccc(Cl)cc1)C(=O)NCC1CCCO1 (stereo unspecified) 10.1%, Cn1cc(S(=O)(=O)c2ccccc2)c(=O)c2cc(F)c(N3CCOCC3)cc21 -14.5%, COc1ccc(-c2c(C#N)c(SCC(=O)Nc3ccccc3C)nc(C)c2C(=O)Nc2ccccc2)cc1OC 4.34%, O=C(CN1CCN(Cc2ccccc2Cl)C1=O)NCc1ccccc1Cl -14.5%, COCCCNC(=O)CSc1nc(-c2cccc(F)c2)[nH]c1-c1ccccc1 -12.7%, COc1cccc(CNCCSc2nnnn2C)c1OCc1ccc(Cl)cc1Cl -4.45%, COc1ccccc1CNC(=O)Cn1c(=O)oc2cc(S(=O)(=O)N3CCC(C)CC3)ccc21 -12.9%, COc1ccccc1NC(=O)CSc1ccc(-c2sc(C)nc2C)nn1 -13.7%, Cc1cccc(-c2nc(CCNC(=O)Cc3ccc(F)cc3)cs2)c1 -8.98%, CCC(Nc1ccc(-c2nc(-c3ccco3)no2)cc1[N+](=O)[O-])c1ccccc1 (stereo unspecified) -20.6%, CCc1cnc2c(c1SCC(=O)Nc1ccc(Cl)cc1)c(=O)n(C)c(=O)n2C -12%, CC(COc1ccccc1)NC(C)C(O)c1ccc(O)cc1 (stereo unspecified) -16.7%, CCOc1ccc(NC(=O)Cc2coc3ccc(C)cc23)cc1 -3.31%, COc1ccc(-c2cc(C(F)F)n3ncc(C(=O)Nc4cc(OC)ccc4OC)c3n2)cc1 -5.96%, Cc1cccn2cc(-c3cccc(NS(=O)(=O)c4ccc(Cl)c(Cl)c4)c3)nc12 -26.8%, CCc1ccc2occ(CC(=O)Nc3c(C(=O)Nc4ccc(OC)cc4)oc4ccccc34)c2c1 -19.2%, O=C(NCc1ccccc1)c1nnc(Cc2cccc(F)c2)o1 -15.6%, O=C(NCC(c1ccc2c(c1)OCO2)N1CCOCC1)c1ccccc1F (stereo unspecified) 2.44%, CC(CNC(=O)Cn1ccc2cc(S(=O)(=O)N3CCCCC3)ccc21)c1ccccc1 (stereo unspecified) 7.03%, CC(C)(C)c1ccc(C(O)CCCN2CCC(C(O)(c3ccccc3)c3ccccc3)CC2)cc1 (stereo unspecified) -9.93%, COc1ccc(C2c3cccn3CCN2S(=O)(=O)c2ccccc2[N+](=O)[O-])cc1OC (stereo unspecified) -19.1%, CCOc1ccc(CCNC(=O)C2CCN(C(=O)N3CC(CC)Oc4ccc(C)cc43)CC2)cc1 (stereo unspecified) -39.8%, Cc1ccc2nc(Cl)c3cc(C(=O)N(C)C4CCCCC4)sc3c2c1 -5.27%, Cc1cc2nn(-c3ccc(F)cc3)nc2cc1NC(=O)c1ccc(OC(C)C)cc1 -11.1%, COc1cccc(Cn2c(=O)n(-c3cccc(Cl)c3C)c(=O)c3c4c(sc32)CN(C(C)=O)CC4)c1 0.583%, Cc1ccc(NC(=O)CSc2nc3ccc(NC(=O)c4cccs4)cc3s2)c(C)c1 -30.5%, CCOC(=O)c1c(C)oc2nc(C)nc(NCC3CCN(Cc4cccc(C)c4)CC3)c12 -23.9%, CCn1c(CNC(=O)c2ccc(OC)cc2)nnc1SCC(=O)Nc1cccc(C)c1C -9.1%, Cc1c(C(=O)N(C)C)sc2c1c(=O)n(-c1ccc(F)cc1)c(=O)n2Cc1cc(=O)n2ccccc2n1 -10.6%, Nc1c(C(=O)Nc2ccc(Cl)c(C(F)(F)F)c2)sc2nc(-c3ccncc3)ccc12 -21.9%, CCN(CC)S(=O)(=O)c1ccc2c(c1)c(=O)c(C(=O)NCc1ccc(Cl)cc1)cn2C -12%, COc1ccc(CC(=O)NCc2ccc3c(c2)CCN3C(C)=O)cc1OC -13.3%, COc1cccc(CNC(=O)C2Cc3cc(S(=O)(=O)N4CCCCCC4)ccc3N2C(C)=O)c1 (stereo unspecified) -11%, CCOC(=O)C1CCN(C(=O)c2ccc3c(c2)sc2nc(-c4ccccc4)cn23)CC1 -17.3%, Cn1nc(C(=O)N2CCN(c3cccc(Cl)c3)CC2)c2c1-c1ccccc1S(=O)(=O)C2 -10.3%, CCCS(=O)(=O)c1ncc(Cl)c(C(=O)Nc2c(C(=O)c3ccccc3)oc3ccccc23)n1 -22.7%, CCCCCn1c(NCc2ccccc2OC)nc2ccccc21 0.765%, NCCCNCCSP(=O)(O)O -17.9% [at 11.5 µM], CCc1cc2c(cc3c(=O)n(CC(=O)N4CCC(C)CC4)nc(CC)n32)s1 -14.4%, O=C1CCc2cc(S(=O)(=O)NCc3ccc(F)cc3)cc3c2N1CC3 -16.9%, COc1ccc(C(=O)COC(=O)c2cc(-c3ccccc3)nc3c(C)cccc23)cc1 -8.69%, CC(=O)N1CCCc2ccc(NS(=O)(=O)c3ccc(C)c(C)c3)cc21 -15.8%, CCC(=O)N1CCc2cc(Br)cc(S(=O)(=O)N3CCCC(C(=O)NCc4cccc(OC)c4)C3)c21 (stereo unspecified) 6.35%, Cc1nc2c(-c3ccccc3)c(C)nn2c(C)c1CCC(=O)N1CCN(c2ccccc2)CC1 -25.3%, CCc1ccc(-n2c(=O)c3ccc(C(=O)NCCc4ccccc4)cc3n(CC(N)=O)c2=O)cc1 -2.51%, O=C(Nc1nnc(S(=O)(=O)N2CCOCC2)s1)c1cccc(F)c1 -25.5%, CCS(=O)(=O)N1CCc2cc(C(=O)Nc3ccc(C)c(Cl)c3)ccc21 -6.94%, CCCCOc1ccc(C(=O)NCC2(N3CCN(C)CC3)CCCCC2)cc1 -1.87%, COc1ccc(Cn2cc(C(=O)c3ccc(OC)cc3)c(=O)c3cc4c(cc32)OCCO4)cc1 -16.1%, COc1ccc(OC)c(NC(=O)c2cn3c4c(ccc(Cl)c4c2=O)OC(C)C3)c1 (stereo unspecified) -14.9%, CCOC(=O)C1CCN(c2nc(-c3ccc(Br)cc3)nc3ccccc23)CC1 -14.2%, Cc1ccc2c(c1)C(c1ccccc1)N(C(=O)c1ccc(OC(C)C)cc1)CC(=O)N2 (stereo unspecified) -26.7%, Cc1cccc(CCNC(=O)Cn2ncc3c(=O)oc4ccccc4c32)c1 -23.1%, Cc1c2cnn(-c3ccccc3)c(=O)c2c(C)n1CC(=O)NCc1ccccc1Br -8.39%, O=C(Nc1ccc(Cl)cc1)N1CCC(CN2CCCC2)CC1 -1.05%, CC(=O)c1cccc(NC(=O)C(Cc2ccccc2)NS(=O)(=O)c2ccc(Br)s2)c1 (stereo unspecified) -7.88%, CN(C)c1ccc(CNC(=O)CCCN2C(=O)CCn3nc(-c4cccn4C)cc32)cc1 -14.6%, CCN(CCCNC(=O)c1nn(-c2ccc(C)cc2)c(=O)c2c1c1ccccc1n2C)c1ccccc1 -18.1%, COc1c(Cl)cc(Cl)cc1/C=C(\C#N)c1nc2ccccc2[nH]1 4.86%, CCc1ccc(-n2c(=O)c3c(C)c(C(=O)N(C)C)sc3n(Cc3cccc(C)c3)c2=O)cc1 -10.2%, COc1cccc(CNC(=O)CCS(=O)(=O)c2cc3c(cc2C)NC(=O)CO3)c1 -11.3%, COc1ccc(C(=O)Nc2ccc(-c3cc4ccccc4oc3=O)c(C)c2)cc1Br -13.8%, Cc1ccc(C)c(N2CCN(C(=O)CCCn3ncn4c(cc5occc54)c3=O)CC2)c1 -22.2%, Cc1ccc(Cn2c(=O)n(Cc3nc(-c4ccccc4)no3)c(=O)c3cc4c(cc32)OCO4)cc1 4.46%, COc1ccccc1OCCCn1c(C2CC(=O)N(c3ccccc3Cl)C2)nc2ccccc21 (stereo unspecified) 7.83%, COc1ccc(C(=O)Nc2ccc3nc(SCc4ccc(C)cc4)sc3c2)cc1 -20.2%, Cc1coc2cc3oc(=O)c(CC(=O)NCc4ccc(F)cc4)c(C)c3cc12 -0.405%, COc1cc(-c2nc3sccn3c2Nc2cccc(C)c2)ccc1O -29.9%, Cc1ccc(O)c(-c2ccnc3cc(-c4ccc(Cl)cc4)nn23)c1 -6.88%, Cc1nc(-c2ccc(Cl)cc2)sc1CCNC(=O)c1ccco1 -2.98%, Cc1ccc(-n2c(=O)c3c4c(sc3n(Cc3ccccc3F)c2=O)CCC4)cc1C -20.1%, Oc1ccccc1-c1nc(/C=C/c2ccccc2Cl)no1 -10%, O=C(Nc1ccccc1)N1CCN(C(=O)c2nsc3ccccc23)CC1 5.88%, CC(=O)c1cccc(NC(=O)CCc2c(C)nc3c(-c4ccc(F)cc4)c(C)nn3c2C)c1 6.59%, Fc1cccc(F)c1-c1nc(-c2ccncc2)no1 -13.5%, Cc1cc(=O)n2nc(N3CCC(C(=O)Nc4ccc(C(C)C)cc4)CC3)sc2n1 -5.94%, COc1ccc(OC)c(NC(=O)Cn2cc(S(=O)(=O)c3ccccc3)c(=O)c3cc(C)ccc32)c1 -6.55%, CCCc1nc2sc3c(N4CCCCC4)ncnc3c2c2c1CCCC2 -13.5%, Cc1ccc(CCNC(=O)CCn2c(=O)c3cccn3c3ccc(F)cc32)cc1 4.18%, COc1cc(OC)cc(C(=O)Nc2cc3nn(-c4ccccc4)nc3cc2Cl)c1 -5.55%, O=C(NCc1ccc2c(c1)CCN2C(=O)c1ccc(F)cc1)c1ccc(Br)o1 -2.06%
